Measured values published in PubChem BioAssay AID1508624 (National Center for Advancing Translational Sciences (NCATS), 2021).
Out of some 48,000 compounds screened, about 120 (0.25%) were called active. Not shown: some 4% with an inconclusive outcome. Calls follow the shape of the dose curve; as a rule, active = well fitted activation curve with a large enough effect; inconclusive = small, poorly fitted or top-dose-only effect, or another doubt; inactive = no such curve, though single readings can be large or run the other way. The list shows a part of the results.

assay: Primary qHTS for Identification of Small Molecule Activators of Huntingtin-Antisense Promoter Activity; details: HEK293 HTT-AS promoter firefly luciferase reporter, 24 h; series mostly up to 57.5 µM; activity change, positive = activation: at the top concentration; also: nearly all actives have a fitted effect of over 55% in size
Summary of the method: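 Quantitative HTS used concentration series of up to 57.5 uM final on HEK293 luciferase reporter cells, 24 h at 37 degrees C. Readout was Dual-Glo firefly luminescence.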

Activity change, positive = activation, inactive:
CCOc1ccc(NCc2cccn2-c2nnc(N3CCC(C(=O)NCCOC)CC3)s2)cc1 -18.2%
C=C(C)Cn1c(=O)c2c(nc3n2CCN3c2ccc(F)cc2)n(C)c1=O -8.15%
Cc1cc(=O)n2nc(N3CCC(C(=O)NCc4ccc(F)cc4)CC3)sc2n1 -13.6%
COc1ccccc1/C=C/c1nc(C#N)c(NCCc2ccccc2)o1 7.6%
CCOc1ccc(-c2nc(Cn3ccn4nc(-c5ccc(OCC)c(Cl)c5)cc4c3=O)c(C)o2)cc1 -0.31%
Cc1ccccc1Nc1cc(C(=O)NCc2cccs2)c2ccccc2n1 -1.58%
COc1ccc(C)cc1N(C)C(=O)c1c2c(nc3ccccc13)C(=O)N(C1CCCCC1)C2 -17.3%
CCOc1ccc(N(CC)S(=O)(=O)N2CCCC(C(=O)Nc3cc(Cl)ccc3OC)C2)cc1 (stereo unspecified) -22.6%
Cc1cccc(OCCn2c(SCC(=O)O)nc3ccccc32)c1 -10.4%
COc1ccc(CNS(=O)(=O)c2ccc(-c3cnc(C4CC4)o3)cc2)cc1 -22.1%
COc1ccc(Nc2ncc(C(=O)N3CCN(c4ccc(F)cc4)CC3)c3ccccc23)cc1 -33.5%
O=C(CN1C(=O)CCc2cc(S(=O)(=O)N3CCOCC3)ccc21)Nc1cccc(C(F)(F)F)c1 -26.8%
Cc1ccc2c(=O)cc(C(=O)Nc3sc4c(c3C(=O)NCc3ccccc3)CCCC4)oc2c1C 8.41%
CCCCCCOc1ccc(C2C(=O)N(C3CCCCC3)CC(=O)N2CCCC)cc1 (stereo unspecified) -16.1%
O=C(Nc1sc2c(c1C(=O)N1CCCCC1)CCCC2)c1ccccc1Cl -18.7%
Cc1noc(Cn2c(=O)c3cc4c(cc3n(CC(=O)Nc3ccccc3Br)c2=O)OCO4)n1 -20.4%
COc1ccc(NC(=O)CNC(=O)Cn2c(C)cc3ccccc3c2=O)cc1OC -27.6%
CCCCN1C(C(=O)c2ccccc2)=C(OC(C)=O)c2ccccc2S1(=O)=O -48%
CN(C)c1ccc(CNC(=O)CCS(=O)(=O)c2ccc3c(c2)oc(=O)n3C)cc1 16.9% [at 11.5 µM, percent change from vehicle, -100% = no light]
CCCS(=O)(=O)N1CCCC(C(=O)NCCOC)C1 (stereo unspecified) -16.8%
CCCCN(CCCC)C1=C(C(=O)c2ccccc2)N(C)S(=O)(=O)c2ccccc21 -19.3%
Cc1ccccc1CNC(=O)CN(c1cccc(C)c1C)S(C)(=O)=O -6.69%
COc1ccccc1NC(=O)CSC1=Nc2ccccc2C2=NC(CCC(=O)NCc3cccs3)C(=O)N12 (stereo unspecified) -19.1%
CCCCN(CC)C(=O)Cn1ncc2c3ccccc3n(CCC)c2c1=O -21.9%
COc1ccc(-n2cc(C(=O)NCc3ccccc3Cl)c3ccccc3c2=O)cc1 -7.11%
Cn1c(=O)[nH]c2cc(-c3noc(-c4cccc(Cl)c4)n3)ccc21 2.89%
CCCNC(=O)Cn1nc(-c2ccc(F)cc2)c2cnc3ccc(F)cc3c21 11.3%
CCOc1cccc(C(=O)N(Cc2ccc(CC)cc2)C2CCS(=O)(=O)C2)c1 (stereo unspecified) -3.5%
COc1ccc(-c2nc3scc(CCNS(=O)(=O)c4ccc(NC(C)=O)cc4)n3n2)cc1 -22.4%
CCN(CC)CCNC(=O)c1c(C)[nH]c(/C=C2\C(=O)Nc3ccc(F)cc32)c1C -24.4%
COc1cc2nc(SCC(=O)Nc3ccccc3F)n3nc(-c4ccccc4)nc3c2cc1OC -6.02%
CCOc1ccc(Cn2c(CNS(=O)(=O)c3cccc(Cl)c3)nc3cccnc32)cc1 -23.1%
CCc1ccc(NC(=O)CSc2nc3c(sc4ccccc43)c(=O)n2CCCOC(C)C)cc1 -7.04%
COc1ccccc1C(=O)N1CCN(Cc2cc(=O)oc3cc(C)ccc23)CC1 -17.8%
Cc1ccc(CNC(=O)c2ccc(CSCc3ccccc3C)o2)cc1 -17.7%
COc1ccc(-c2nc3ccc(NS(=O)(=O)c4ccc(Cl)cc4)cc3o2)cc1 -13%
COc1ccc(-c2nnc(SCc3cccc(Cl)c3)o2)cc1 17%
CC(=O)N1CCC(N(Cc2ccc(C)o2)C(=O)Nc2ccc(C)cc2)CC1 -1.5%
CCOc1ccc(OCC)c(NS(=O)(=O)c2ccc(-c3coc(C)n3)cc2)c1 -37.4%
Cn1c(=O)[nH]c(=O)c2c1nc(NCCc1ccccc1)n2Cc1ccc(F)cc1 -18.5%
COc1ccc(NC(=O)c2c(NC(=O)c3ccc(Br)cc3)sc3c2CCCC3)cc1 -60.4%
Cn1cc(S(=O)(=O)N2CCOCC2)cc1C(=O)Nc1ccc(Cl)c(C(F)(F)F)c1 -39.5%
Cc1cc(NC(=O)Nc2nnc(N(C)Cc3ccccc3)s2)ccc1Br -15.1%
CCOc1ccc2nc(NC(=O)c3nc(SC)ncc3Cl)sc2c1 24.6%
CCOc1ccccc1NC(=O)Cc1noc2ccc(C)cc12 14%
COc1cc(NC(=O)c2cn(C3CCCC3)c(=O)c3c2c2ccccc2n3C)cc(OC)c1OC -34.5%
CC(=O)C1=C(c2ccc(Cl)cc2)N(C(C)=O)n2c(nnc2C2CCCCC2)S1 -17%
Cc1ccc(Cl)cc1N(C)C(=O)c1cn(C2CCCCC2)c(=O)c2c1c1ccccc1n2C -8.47%
Cc1ccc(N(CC(=O)Nc2cccc(Cl)c2)S(=O)(=O)c2cccs2)cc1 -31.7%
CCN(Cc1ccccc1)S(=O)(=O)c1ccc2c(c1)CC(C)N2C(=O)C1CCC1 (stereo unspecified) -33%
Cc1ccc2c(c1)N(CCC(=O)NCc1ccccc1Cl)C(=O)CO2 -16%
O=c1c2oc3ccccc3c2n(Cc2ccccc2F)c(=O)n1Cc1ccccc1 -18.5%
Cc1ccc2onc(CC(=O)Nc3ccc(C(C)C)cc3)c2c1 -2.96%
COc1cccc(CNC(=O)c2cc3c(=O)oc4ccc(C)cc4c3s2)c1 -1.14%
CCCCNC(=O)c1cccc(-n2c(C)nc3cccnc32)c1 -6.36%
Fc1ccc2c(c1)-c1nc(-c3ccccc3)cc(-c3ccccc3)c1CO2 0.28%
COc1ccc(N(C(=O)c2cccc(C)c2)S(=O)(=O)c2ccc(Cl)cc2)cc1 -35.8%
CCOc1cc(C(=O)N2CCn3c4c(c5cc(C)ccc53)CCCC42)cc(OCC)c1OCC (stereo unspecified) -8.65%
CCOc1ccc(CNS(=O)(=O)c2ccc(-c3coc(C)n3)cc2)cc1 -27.3%
COc1ccc(N2CCN(CCCNC(=O)Cn3c(-c4cccs4)cc4ccccc43)CC2)cc1 -31.4%
COc1cccc(C2C(C(=O)Nc3ccc(C)cc3C)=C(C)Nc3nc4ccccc4n32)c1OC (stereo unspecified) -16.8%
